Assay results from PubChem BioAssay AID1030 (National Center for Advancing Translational Sciences (NCATS), 2008).
Out of some 220,000 compounds screened, about 16,000 (7.3%) were called active. Inconclusive means that the source gave no clear call. Such entries were picked first, then a sample of the others. The call rests on the fitted dose curve; in most records, active means well fitted inhibition curve with a large enough effect (not every such curve was filed as active); inconclusive means small, poorly fitted or top-dose-only effect, or another doubt; inactive means no such curve, though single readings can be large or run the other way. Potencies of inconclusive entries are left out as doubtful fits.

Biological target: Aldehyde dehydrogenase 1A1 (Homo sapiens) (UniProt P00352)
Assay: qHTS Assay for Inhibitors of Aldehyde Dehydrogenase 1 (ALDH1A1);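 on activity, negative = inhibition: plate controls were no enzyme wells and a reference inhibitor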
Conditions: Purified ALDH1A1, NADH fluorescence, propionaldehyde substrate; series mostly up to 75.3 µM
Potency means the concentration at half of the fitted maximal effect; tags describe the fitted curve by direction and shape.

UniProt P00352, sequence (P00352 whole entry, looked up): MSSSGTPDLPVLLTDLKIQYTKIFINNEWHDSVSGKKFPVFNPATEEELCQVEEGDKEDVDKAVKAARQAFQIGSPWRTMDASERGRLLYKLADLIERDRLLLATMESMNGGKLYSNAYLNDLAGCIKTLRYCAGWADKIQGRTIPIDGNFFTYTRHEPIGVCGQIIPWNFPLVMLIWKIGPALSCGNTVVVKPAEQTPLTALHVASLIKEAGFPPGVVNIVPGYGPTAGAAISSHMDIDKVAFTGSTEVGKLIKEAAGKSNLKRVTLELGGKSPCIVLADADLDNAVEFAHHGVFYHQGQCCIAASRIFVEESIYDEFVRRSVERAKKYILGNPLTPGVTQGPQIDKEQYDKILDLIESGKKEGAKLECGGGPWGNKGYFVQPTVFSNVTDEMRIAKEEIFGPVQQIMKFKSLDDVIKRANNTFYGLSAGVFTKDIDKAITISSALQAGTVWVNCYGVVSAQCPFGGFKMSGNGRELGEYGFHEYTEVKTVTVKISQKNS

SMILES	Potency	activity, negative = inhibition
COc1cccc(-c2nc3ccccc3s2)c1O	inconclusive [inhibitor, single point]	–
CCc1nnc(NC(=O)C2CCN(c3nccc(C)n3)CC2)s1	inconclusive [inhibitor, single point]	–
N#CC(C(=O)C1CCCCC1)c1nc2ccccc2[nH]1 (configuration not stated)	inconclusive [inhibitor, single point]	–
Cc1ccc(S(=O)(=O)N2c3ccccc3NC(=O)C2CC(=O)Nc2ccccc2)cc1 (configuration not stated)	active: 20 µM	–
COc1ccc(Nc2nc(N)nc(CN3CCc4ccccc4C3)n2)cc1	inconclusive [inhibitor, single point]	–
CCOC(=O)C1=NOC(COc2ccccc2C=O)C1 (configuration not stated)	inactive	–
Cc1cc(-c2ccccc2)c(C#N)c(N)n1	inconclusive [inhibitor, single point]	–
C/C(=N/NC(=O)Cc1cccn1C)c1ccccc1	active: 17.8 µM	–
Cc1ccnc(NS(=O)(=O)c2ccc(N=[N+]=[N-])cc2)n1	–	inactive: -4.02% [at 13.5 µM]
CCOC(=O)c1ccc(Nc2ncnc3ccc(C)cc23)cc1	inconclusive [inhibitor, single point]	–
COc1ccc2oc(-c3ccc(C)c(NC(=O)c4ccc(N5CCOCC5)c([N+](=O)[O-])c4)c3)nc2c1	inactive	–
COc1ccc(N2CCN(Cc3nc4c(c(=O)n(C)c(=O)n4C)n3C(C)C(C)=O)CC2)cc1 (configuration not stated)	inconclusive [inhibitor, single point]	–
O=C(Oc1ccccc1)c1cc2ccccc2o1	inactive	–
Cc1cc([N+](=O)[O-])nn1CCCC(=O)Nc1cc(Oc2ccccc2)cc([N+](=O)[O-])c1	inconclusive [inhibitor, partial curve]	–
CC1(C)CC(=O)C(C(N)=NC(=O)c2ccccc2)=C(O)C1	active: 10 µM	–
O=CN/C=C/c1cc(F)cc(F)c1F	inactive	–
CCOc1ccc(C(=O)NC(=S)Nc2cccnc2)cc1	inconclusive [inhibitor, single point]	–
C=C(C)c1cccc(C(C)(C)NC(=O)NC(c2ccccc2)c2ccc(OC)cc2)c1 (configuration not stated)	inactive	–
CC(=O)c1ccc(N2CCN(C(=O)C3CCC3)CC2)cc1	inconclusive [inhibitor, single point]	–
O=C(CN1C(=O)NC2(CCCCC2)C1=O)Nc1ccc(S(=O)(=O)N2CCOCC2)cc1	inactive	–
O=C1/C(=C/c2ccco2)CCc2ccccc21	active: 28.2 µM	–
CC(C)CCNC(=O)C(c1cccnc1)N(CCc1ccccc1)C(=O)Cn1nnc2ccccc21 (configuration not stated)	inactive	–
